# In PubChem BioAssay AID504333 (National Center for Advancing Translational Sciences (NCATS), 2011):
# Among all 360,000 compounds or so, about 16,000 (4.4%) were called active. This list was built around the results that the source calls inconclusive (neither active nor inactive); the mix of calls is not that of the screen. The call rests on the fitted dose curve; in most records, active means well fitted inhibition curve with a large enough effect; inconclusive means small, poorly fitted or top-dose-only effect; inactive means no such curve, though single readings can be large or run the other way. Where the call is inconclusive, the potency comes from a doubtful curve fit.
# Target: Bromodomain adjacent to zinc finger domain protein 2B (Homo sapiens) (UniProt Q9UIF8)
# Experiment: qHTS Assay for Inhibitors of BAZ2B; further: nearly all actives have a fitted effect of over 60% in size
# Details: AlphaScreen BAZ2B-H3K14Ac peptide displacement; activity change, negative = inhibition: at 114 µM (top of the series) unless noted
# Summary of the method: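 BAZ2B 50 nM plus b-H3(5-23)K14Ac 50 nM, PBS pH 7.4/0.01% Tween-20, 30 min RT; compound added (max 110 uM), 30 min RT; streptavidin donor/Ni-chelate acceptor beads 10 ug/mL final, 20 min dark; AlphaScreen read.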
# On the % scale 0 is the no-effect control and ±100 the full control effect; potency means the concentration at half of the fitted maximal effect; tags describe the fitted curve by direction and shape.
# UniProt Q9UIF8, sequence (Q9UIF8 whole entry, looked up, the tested form may be a part): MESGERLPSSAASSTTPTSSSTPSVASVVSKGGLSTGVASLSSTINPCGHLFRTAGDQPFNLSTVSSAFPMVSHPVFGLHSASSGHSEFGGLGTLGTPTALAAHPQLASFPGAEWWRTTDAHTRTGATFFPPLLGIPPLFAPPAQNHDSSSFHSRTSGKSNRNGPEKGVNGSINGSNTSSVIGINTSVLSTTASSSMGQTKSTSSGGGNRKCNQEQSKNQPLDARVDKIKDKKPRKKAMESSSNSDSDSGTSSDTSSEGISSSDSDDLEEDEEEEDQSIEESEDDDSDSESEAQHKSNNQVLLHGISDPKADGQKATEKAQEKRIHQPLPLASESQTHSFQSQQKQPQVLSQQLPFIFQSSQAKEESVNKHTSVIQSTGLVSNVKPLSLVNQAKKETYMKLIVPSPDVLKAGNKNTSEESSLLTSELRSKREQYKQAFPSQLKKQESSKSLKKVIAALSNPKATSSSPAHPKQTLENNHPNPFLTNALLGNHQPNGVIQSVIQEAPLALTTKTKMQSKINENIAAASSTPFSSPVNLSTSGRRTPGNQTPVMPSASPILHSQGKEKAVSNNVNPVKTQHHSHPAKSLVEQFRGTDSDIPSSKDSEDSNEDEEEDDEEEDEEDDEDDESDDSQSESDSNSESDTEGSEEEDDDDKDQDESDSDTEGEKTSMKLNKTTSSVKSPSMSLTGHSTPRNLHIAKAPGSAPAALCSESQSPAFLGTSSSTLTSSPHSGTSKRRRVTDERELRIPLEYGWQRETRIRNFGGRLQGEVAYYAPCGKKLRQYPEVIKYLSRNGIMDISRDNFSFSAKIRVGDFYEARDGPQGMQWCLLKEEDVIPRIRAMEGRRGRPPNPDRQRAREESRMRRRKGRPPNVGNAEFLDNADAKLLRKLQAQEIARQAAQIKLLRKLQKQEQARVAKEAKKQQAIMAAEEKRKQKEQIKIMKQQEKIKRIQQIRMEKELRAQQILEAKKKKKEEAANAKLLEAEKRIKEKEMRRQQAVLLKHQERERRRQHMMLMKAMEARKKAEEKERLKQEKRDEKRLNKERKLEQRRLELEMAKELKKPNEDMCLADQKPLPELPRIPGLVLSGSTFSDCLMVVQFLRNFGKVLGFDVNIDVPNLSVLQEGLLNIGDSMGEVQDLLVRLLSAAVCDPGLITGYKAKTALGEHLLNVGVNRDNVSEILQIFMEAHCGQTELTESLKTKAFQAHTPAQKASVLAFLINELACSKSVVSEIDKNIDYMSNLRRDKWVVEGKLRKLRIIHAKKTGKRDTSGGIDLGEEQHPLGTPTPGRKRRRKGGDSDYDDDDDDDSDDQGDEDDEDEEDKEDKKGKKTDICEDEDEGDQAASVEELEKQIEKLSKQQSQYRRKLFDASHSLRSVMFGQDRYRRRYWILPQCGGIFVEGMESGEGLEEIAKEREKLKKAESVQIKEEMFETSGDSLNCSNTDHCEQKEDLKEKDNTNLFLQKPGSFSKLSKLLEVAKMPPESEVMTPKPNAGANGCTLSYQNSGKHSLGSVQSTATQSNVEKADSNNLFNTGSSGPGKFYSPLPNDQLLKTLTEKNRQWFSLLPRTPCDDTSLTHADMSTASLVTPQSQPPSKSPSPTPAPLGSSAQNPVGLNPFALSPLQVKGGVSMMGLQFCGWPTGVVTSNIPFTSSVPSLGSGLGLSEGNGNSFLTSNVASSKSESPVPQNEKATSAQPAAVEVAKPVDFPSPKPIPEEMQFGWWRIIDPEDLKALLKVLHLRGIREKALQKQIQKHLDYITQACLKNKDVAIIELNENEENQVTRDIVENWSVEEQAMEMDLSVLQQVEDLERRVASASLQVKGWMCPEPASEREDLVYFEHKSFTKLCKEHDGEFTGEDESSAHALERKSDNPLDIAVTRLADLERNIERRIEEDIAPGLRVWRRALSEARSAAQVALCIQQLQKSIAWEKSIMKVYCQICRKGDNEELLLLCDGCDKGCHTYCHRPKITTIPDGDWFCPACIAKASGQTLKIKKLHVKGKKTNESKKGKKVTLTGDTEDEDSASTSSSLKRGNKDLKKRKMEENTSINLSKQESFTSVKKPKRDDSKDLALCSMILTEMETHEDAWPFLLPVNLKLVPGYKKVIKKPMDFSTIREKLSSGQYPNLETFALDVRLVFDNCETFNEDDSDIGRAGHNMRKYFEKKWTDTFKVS
SMILES,Potency,"activity change, negative = inhibition"
C[N+](C)(C)c1ccc(/C=N/Nc2nc(Cl)c(C#N)c(Cl)c2Cl)cc1,active: 50.1 µM,
Cc1ccc(/C=C/C(=O)Oc2ccc(C#N)cc2)o1,,inactive: -2.06%
Cc1ccc(NC(=O)NNC(=O)c2sccc2-n2cccc2)cc1,"inconclusive: 89.1 µM [inhibitor, single point]",
COC(=O)c1c(-c2cccs2)csc1NC(=O)COc1ccccc1,"inconclusive: 89.1 µM [inhibitor, single point]",
CCN(CC(=O)Nc1ccccc1OC)C(=O)COc1ccc2ccccc2c1,,inactive: -3.93%
COc1ccccc1N1CCN(C(=O)c2ccc3c(c2)CCN3S(C)(=O)=O)CC1,,inactive: -2.21%
COc1ccccc1/C(O)=C(\C#N)c1nc2ccccc2[nH]1,,inactive: -28%
OC(COc1ccc2ccccc2c1Br)Cn1cnc(-c2ccccc2)c1 (stereo not drawn),"inconclusive: 79.4 µM [inhibitor, single point]",
Clc1ccc(OCc2nc(-c3ccccn3)n[nH]2)cc1,active: 22.4 µM,
COc1cccc(C(=O)Nc2ccc(NC(=O)C3C4C=CC(C4)C3C(=O)O)cc2)c1 (stereo not drawn),,inactive: -1.22%
CCOC(=O)c1c(C)[nH]c(C(=O)N2CCN(c3ccc(OC)cc3)CC2)c1C,active: 39.8 µM,
NC(=O)CSc1c[nH]c2ccccc12,,inactive: 7.21%
Cc1ccc(C(=O)Nc2ccccc2C(=O)OCc2cc(=O)n3nc(C4CC4)sc3n2)cc1,,inactive: -1.07%
COc1cc(C(=O)NCC(=O)OCC(=O)Nc2nnc(-c3ccccc3)o2)cc(OC)c1OC,"inconclusive: 89.1 µM [inhibitor, single point]",
CCc1ccc(NC(=O)CSc2nc3c(sc4ccccc43)c(=O)n2CCN(CC)CC)cc1,,inactive: -27.3%
COC1=C(Nc2ccccc2OC)C(=O)c2ccccc2C1=O,active: 8.91 µM,
Cc1cn2c(=O)cc(COC(=O)c3ccccc3F)nc2s1,,inactive: -3.06%
CC(=O)C1=C(O)C(=O)N(CCc2c[nH]c3ccccc23)C1c1cccc(O)c1 (stereo not drawn),"inconclusive: 89.1 µM [inhibitor, single point]",
COC(=O)N/N=C\c1c(C)[nH]n(-c2ccccc2)c1=O,"inconclusive: 14.1 µM [inhibitor, full curve, poor fit]",
Cc1noc(C)c1COc1ccc(C(=O)Nc2ncccc2O)cc1,"inconclusive: 89.1 µM [inhibitor, single point]",
CCOc1ccccc1NC(=O)CSc1nnc(CCC(=O)Nc2ccccc2F)n1C,,inactive: -2.8%
COc1ccccc1N1CCN(CC(O)COCCOc2ccc(Br)cc2)CC1 (stereo not drawn),"inconclusive: 89.1 µM [inhibitor, single point]",
Cc1csc(NC(=O)C2CCN(S(=O)(=O)c3ccccc3F)CC2)n1,,inactive: -19.5%
